# In PubChem BioAssay AID588855 (National Center for Advancing Translational Sciences (NCATS), 2011):
# Several values for one entry are separate records, joined by “and”; a condition that tells them apart may be missing. Equal entries are not always repeated. The whole screen tested about 410,000 compounds, of which about 5,000 (1.2%) were called active. This list was built around the results that the source calls inconclusive (neither active nor inactive); the mix of calls is not that of the screen. Calls follow the shape of the dose curve; as a rule, active = well fitted inhibition curve with a large enough effect; inconclusive = small, poorly fitted or top-dose-only effect; inactive = no such curve, though single readings can be large or run the other way. Potencies of inconclusive entries are doubtful fits and often do not repeat.
# Test: qHTS for Inhibitors of TGF-b; also: nearly all actives have a fitted effect of over 65% in size
# Details: HepG2 CAGA-GFP TGF-b/SMAD3 reporter, GFP fluorescence, 18 h, TGF-beta stimulated, 500 pg/mL final; series mostly up to 46.1 µM
# Summary of the method: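 GFP signal (ex488/em500-530) from TGF-beta-stimulated HEPG2 CAGA-GFP cells, 500 pg/mL final, 18 h at 37 degrees C in DMEM plus 1% FBS, normalized to unstimulated and DMSO-stimulated controls.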
# Potency is read from the fitted curve at half-maximal effect; tags tell the direction and shape of the fitted curve.
row,Structure (SMILES),Potency
1,CSc1nccc(N2CCN(c3ccc(F)cc3)CC2)n1,"inconclusive: 35.5 µM [inhibitor, single point]"
2,COc1cc2c(cc1OC)C(c1cc3cc(OC)c(OC)cc3[nH]c1=O)N(C(=O)C1CC1)CC2 (stereo not given),"inconclusive: 1.58 µM [inhibitor, full curve, poor fit]"
3,CN=C1S/C(=C\c2ccc(N3CCCC3)c(F)c2)C(=O)N1C,inactive
4,Cc1cccc(N(CC(=O)Nc2cccc(Cl)c2C)S(C)(=O)=O)c1C,inactive
5,C[C@H](CO)N1C[C@H](C)[C@@H](CN(C)Cc2ccc(Oc3ccccc3)cc2)Oc2cc(Br)ccc2S1(=O)=O,active: 12.6 µM
6,CCCCn1c(N)c(N(CCOC)C(=O)Cn2c(=O)oc3ccccc32)c(=O)[nH]c1=O,inactive
7,CC(=O)Nc1nc(C)c(-c2csc(Nc3ccccn3)n2)s1,"inconclusive: 35.5 µM [inhibitor, single point] and inconclusive: 12.6 µM [inhibitor, single point]"
8,CCc1noc(C)c1C(=O)N1CCN(S(=O)(=O)c2ccc(Br)cc2)CC1,"inconclusive: 2.82 µM [inhibitor, full curve, poor fit]"
9,Cc1cccc(-n2ccnc2SCC(=O)Nc2cc(C)on2)c1,inactive
10,CCCCn1c(N)c(N(CC(C)C)C(=O)COC(=O)Cc2c(C)nc3ccccc3c2C)c(=O)[nH]c1=O,inactive
11,N#CC1=C(N)Oc2ccc3ccc(O)cc3c2C1c1ccsc1 (stereo not given),"inconclusive: 11.2 µM [inhibitor, partial curve, poor fit]"
12,COc1cccc(CNC(=O)Cn2c(SCC(=O)Nc3ccc(F)cc3)nc3ccccc32)c1,"inconclusive: 31.6 µM [inhibitor, single point]"
13,CCCn1nc(NC(=O)c2cccs2)c2cc3cc(OC)ccc3nc21,"inconclusive: 11.2 µM [inhibitor, single point]"
14,CN(C)S(=O)(=O)c1cc(NC(=O)CNCCN2CCOCC2)ccc1Cl,"inconclusive: 1 µM [inhibitor, full curve, poor fit]"
15,O=C(CNC(=O)c1cccs1)N/N=C/c1ccc(O)cc1O,"inconclusive: 6.31 µM [inhibitor, full curve, poor fit]"
16,Cc1ccc2c(c1)-c1c(c(C(=O)NCCc3ccccc3)nn1C)CS2,inactive
17,CCCN(C(=O)Cc1c(C(=O)O)[nH]c2ccc(Cl)cc12)c1ccc(OCC)cc1,"inconclusive: 0.708 µM [inhibitor, full curve]"
18,CN(C1CCCCC1)S(=O)(=O)c1ccc2[nH]c(=O)oc2c1,inactive
19,Cc1c(C(=O)OCC(=O)N(C)C2CCS(=O)(=O)C2)oc2ccc(Br)cc12 (stereo not given),inactive
20,Cc1ccc(S(=O)(=O)N2CCCC(c3nc4c(nnn4Cc4ccc5c(c4)OCCO5)c(=O)[nH]3)C2)cc1 (stereo not given),inactive
21,COC(=O)Cc1c(C)[nH]n(-c2cc(Cl)cc(Cl)c2)c1=O,"inconclusive: 35.5 µM [inhibitor, single point]"
22,COc1cc(/C=N\NC(=O)c2ccc(Cn3cc(Br)c([N+](=O)[O-])n3)o2)cc(OC)c1O,"inconclusive: 0.708 µM [inhibitor, partial curve, poor fit]"

row,Structure (SMILES),Potency
1,Cc1ccc(C)c(N2CCN(S(=O)(=O)c3ccc4c(c3)CC(=O)N4C)CC2)c1,"inconclusive: 14.1 µM [inhibitor, partial curve, poor fit]"
2,COc1cc(S(=O)(=O)NCCCn2ccnc2)ccc1Cl,inactive
3,O=c1c2c([N+](=O)[O-])cc([N+](=O)[O-])cc2sn1Cc1ccccc1,"inconclusive: 8.91 µM [inhibitor, partial curve, poor fit]"
4,O=C(CO/N=C/c1ccc(OC(F)F)cc1)NC1CCCCC1,"inconclusive: 14.1 µM [inhibitor, single point]"
5,O=C(c1ccc(Cl)c(S(=O)(=O)N2CCOCC2)c1)N(c1ccccn1)C1CCCCC1,inactive
6,O=S(=O)(CCc1nnc(-c2ccccc2)o1)c1ccc2ccccc2c1,"inconclusive: 11.2 µM [inhibitor, partial curve, poor fit]"
7,CC(=O)Nc1cccc(Oc2ncnc3scc(-c4ccccc4)c23)c1,"inconclusive: 35.5 µM [inhibitor, single point]"
8,CCOc1ccc(-c2csc(-c3nc(-c4ccc(Br)s4)cs3)n2)cc1,inactive
9,Cc1noc(C)c1NC(=O)N(C)C[C@H]1Oc2c(NC(=O)C3CC3)cccc2C(=O)N([C@H](C)CO)C[C@@H]1C,"inconclusive: 6.31 µM [inhibitor, single point]"
10,Cc1nnc(SCC(=O)NCc2ccc(N(C)C)cc2)c2nn(-c3ccccc3)c(C)c12,"inconclusive: 35.5 µM [inhibitor, single point]"
11,CCN(CC)c1ccc(S(=O)(=O)N2CCCCC2)cc1NC(=O)C1CCC1,"inconclusive: 20 µM [inhibitor, single point]"
12,CCCCNC(=O)CNC(=S)N(Cc1ccccc1F)C1CCCCC1,inactive
13,Cc1ccccc1N1CCN(c2ccccc2NC(=O)/C=C\C(=O)O)CC1,inactive
14,COc1ccc(OC)c(C(=O)/C=C/c2cccnc2)c1,"inconclusive: 22.4 µM [inhibitor, partial curve, poor fit]"
15,Cc1ccc(NC(=O)COC(=O)C2COc3ccccc3O2)cc1 (stereo not given),inactive
16,CCOc1cc(CNCC(O)c2ccccc2)cc(Cl)c1OC (stereo not given),inactive
17,COc1ccc(S(=O)(=O)N2CCCCC2)cc1NC(=O)CN(C)C1CCCCC1,"inconclusive: 15.8 µM [inhibitor, single point]"
18,Nn1c(Cc2cccc3ccccc23)nnc1SCc1ccccc1Cl,"inconclusive: 0.112 µM [inhibitor, full curve, poor fit]"
19,COc1cc2cc(C)nc(Cc3cccc4ccccc34)c2cc1OC,"inconclusive: 25.1 µM [inhibitor, partial curve, poor fit]"
20,COc1ccc(S(=O)(=O)N/N=C\c2ccc(OC)c(COc3ccc(C)cc3[N+](=O)[O-])c2)cc1,"inconclusive: 5.62 µM [inhibitor, partial curve, poor fit]"
21,O=C(c1ccc2c(c1)N(Cc1ccccc1F)C(=O)c1ccccc1S2=O)N1CCCCC1 (stereo not given),"inconclusive: 2.51 µM [inhibitor, partial curve, poor fit]"
22,COc1ccc(/C=C/C(=O)c2ccc([N+](=O)[O-])o2)cc1OC,active: 2.51 µM

row,Structure (SMILES),Potency
1,c1cc(CN2CCCCC2)cc(OCCCNc2nc3ccccc3s2)c1,"inconclusive: 22.4 µM [inhibitor, single point]"
2,COc1ccc(C(=O)Nc2cccc(NC(=O)c3cccs3)c2)cc1OC,inactive
3,CC1(CCC(=O)N2CCCC(N3CCN(c4cccc(C(F)(F)F)c4)CC3)C2)CC1 (stereo not given),"inconclusive: 35.5 µM [inhibitor, single point]"
4,CCC1Nc2ncnc(N3CCOCC3)c2N(Cc2ccccc2)C1=O (stereo not given),"inconclusive: 0.112 µM [inhibitor, full curve, poor fit]"
5,O=C(Nc1ccc(Cl)c(Cl)c1)C1CCN(C(=O)c2ccco2)CC1,"inconclusive: 35.5 µM [inhibitor, single point]"
6,COc1ccc2nc3oc(C(=O)N(C)c4ccc(Cl)cc4)cc3cc2c1,"inconclusive: 35.5 µM [inhibitor, single point]"
7,COc1ccc(N2CCN(CC(O)COc3ccc(C(C)C)c(C)c3)CC2)cc1 (stereo not given),"inconclusive: 35.5 µM [inhibitor, partial curve, poor fit]"
8,Cc1ccc(NC(=O)/C=C/c2ccco2)cc1S(=O)(=O)N1CCCCCC1,"inconclusive: 17.8 µM [inhibitor, single point]"
9,O=S(=O)(c1ccc(Cl)cc1)N1CCCC1c1nc2ccccc2s1 (stereo not given),"inconclusive: 22.4 µM [inhibitor, single point]"
10,CC(C)C[C@H](NC(=O)c1nc[nH]c1C(=O)NCC(=O)OCc1ccccc1)C(=O)OC(C)(C)C,"inconclusive: 35.5 µM [inhibitor, single point]"
11,COc1ccccc1-c1sc2ccccc2c1-c1ccc(Br)nc1,"inconclusive: 6.31 µM [inhibitor, single point]"
12,O=C(Nc1c(-c2ccccc2)nc2ncccn12)c1cc2ccccc2oc1=O,"inconclusive: 14.1 µM [inhibitor, single point]"
13,O=C(CN1CCN(Cc2ccc(F)cc2Cl)C1=O)NCCCN1CCOCC1,"inconclusive: 35.5 µM [inhibitor, single point]"
14,CC(Sc1ccc(Cl)cc1)C(=O)NCc1ccc2c(c1)OCO2 (stereo not given),"inconclusive: 35.5 µM [inhibitor, single point]"
15,COc1ccc(CN2C[C@@H](CO)O[C@@H](n3cnc4c(NCc5ccc(F)cc5)ncnc43)C2)cc1,inactive
16,CC(C)=CCC/C(C)=C/CNC(=O)C[C@H]1C[C@H](C(=O)N2CCOCC2)[C@@]2(C)c3[nH]c4ccc(Cl)cc4c3CCN2C1=O,active: 10 µM
17,NC1=NC(=Nc2ccc(Br)cc2)c2ccccc21,"inconclusive: 35.5 µM [inhibitor, single point]"
18,CC1=C(C(=O)N(C(C)C)C(C)C)CC(CC(=O)NCc2ccco2)C(=O)N1CCC1=CCCCC1 (stereo not given),"inconclusive: 10 µM [inhibitor, partial curve]"
19,O=C(NC1=NCCS1)C1COc2ccccc2O1 (stereo not given),inactive
20,O=C(Cn1ncc(Cl)c(Cl)c1=O)NCC1CCCCC1,"inconclusive: 35.5 µM [inhibitor, partial curve, poor fit]"
21,CCOCC(=O)Nc1cc(C(F)(F)F)ccc1Oc1cccc(Br)c1,"inconclusive: 35.5 µM [inhibitor, single point]"
